Some of the results follow. Rule as the data show it: active = 3.2 or more and inactive = the rest. Only a few entries rise above the background.
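Also: displayed peptides selected on beads carrying the immobilized SH2 domain, with library peptides lacking any tyrosine serving as negative controls.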

The target in the first assay is SHP2 C-SH2 domain E139D. Kind of assay: enrichment score (SH2-bound / input frequency) (ratio); bacterial display of known human phosphotyrosine sites (pTyr-Var adds point mutants) read by sequencing; higher = stronger binding; tyrosines were phosphorylated by kinases first. To be noted: peptide library: pTyr-Var.
Take TSSAVYMNLAS [GATAD2B_Y317_I316V]: the enrichment score was inactive: 2.62.

Turning to VAMELYVFGGV [GAN_Y471], the enrichment score was inactive: 0.863.

FEGAIYRKDVG [GART_Y417]: the enrichment score was inactive: 1.01.

As to VKANTYENYWP [GATM_Y100_K102N], the enrichment score is active: 4.94.

Turning to KPSLKYVTYGN [GALNTL5_Y404_G401S], the enrichment score was inactive: 1.2.

For PTATSYTPNLA [GABRA1_Y375], the enrichment score was inactive: 0.742.

As to ENPAKYDDIKK [GAPDH_Y255_K251N], the enrichment score was inactive: 1.81.

Regarding ADRSCYDLSCH [GARS1_Y467], the enrichment score is inactive: 1.03.

For DRTGHYLCNAC [GATA1_Y223], the enrichment score is inactive: 0.858.

For NTYENYWPFYQ [GATM_Y103_K102N], the enrichment score was active: 4.78.

As for RGRSTCFWPRP [GAGE12J_Y9_Y9C_YF], the enrichment score is inactive: 0.27.

In the case of LASSEYPVQRR [GALK1_Y236_R239Q], the enrichment score was inactive: 0.517.

LFSLGYHQSLW [GANAB_Y396_R400L]: the enrichment score was inactive: 1.41.

Turning to RGRSTYFWPSP [GAGE12J_Y9_R13S_YF], the enrichment score was inactive: 0.284.

For SIIKDYFHRGA [GATM_Y203], the enrichment score was inactive: 1.23.

For the molecule DVFRQYASLTG [GANAB_Y379], the enrichment score is inactive: 0.672.

On to MKKKIYAMGGG [GAN_Y424], for which the enrichment score was inactive: 0.917.

Take FIGCIYLYLTK [GARS1_Y414_R412C]: the enrichment score was active: 4.

For a further assay, the target named is SHP2 C-SH2 domain wild-type. The assay is described as above. To be noted: peptide library: pTyr-Var.
Consider TSSAVYMNLAS [GATAD2B_Y317_I316V], for which the enrichment score is inactive: 2.22.

In the case of VAMELYVFGGV [GAN_Y471], the enrichment score is inactive: 1.48.

Regarding FEGAIYRKDVG [GART_Y417], the enrichment score is inactive: 1.13.

Take VKANTYENYWP [GATM_Y100_K102N]: the enrichment score was active: 3.6.

On to KPSLKYVTYGN [GALNTL5_Y404_G401S], for which the enrichment score is inactive: 0.954.

Regarding PTATSYTPNLA [GABRA1_Y375], the enrichment score was inactive: 0.795.

For the molecule ENPAKYDDIKK [GAPDH_Y255_K251N], the enrichment score was inactive: 0.596.

On to ADRSCYDLSCH [GARS1_Y467], for which the enrichment score was inactive: 0.991.

For DRTGHYLCNAC [GATA1_Y223], the enrichment score is inactive: 0.968.

Turning to NTYENYWPFYQ [GATM_Y103_K102N], the enrichment score was active: 4.35.

With RGRSTCFWPRP [GAGE12J_Y9_Y9C_YF], the enrichment score was inactive: 0.204.

Take LASSEYPVQRR [GALK1_Y236_R239Q]: the enrichment score is inactive: 0.283.

In the case of LFSLGYHQSLW [GANAB_Y396_R400L], the enrichment score is inactive: 1.45.

Consider RGRSTYFWPSP [GAGE12J_Y9_R13S_YF], for which the enrichment score was inactive: 0.138.

In the case of SIIKDYFHRGA [GATM_Y203], the enrichment score was inactive: 1.01.

Take DVFRQYASLTG [GANAB_Y379]: the enrichment score is inactive: 1.97.

With MKKKIYAMGGG [GAN_Y424], the enrichment score is inactive: 0.632.

On to FIGCIYLYLTK [GARS1_Y414_R412C], for which the enrichment score was active: 3.46.

A further assay concerns the target SHP2 N-SH2 domain L43F. Described as above. The conditions noted are these: peptide library: pTyr-Var.
As to TSSAVYMNLAS [GATAD2B_Y317_I316V], the enrichment score is inactive: 2.27.

As to VAMELYVFGGV [GAN_Y471], the enrichment score was inactive: 0.698.

For FEGAIYRKDVG [GART_Y417], the enrichment score was inactive: 0.722.

Turning to VKANTYENYWP [GATM_Y100_K102N], the enrichment score is active: 4.83.

KPSLKYVTYGN [GALNTL5_Y404_G401S]: the enrichment score is inactive: 1.56.

Regarding PTATSYTPNLA [GABRA1_Y375], the enrichment score is inactive: 0.79.

Consider ENPAKYDDIKK [GAPDH_Y255_K251N], for which the enrichment score is inactive: 0.553.

On to ADRSCYDLSCH [GARS1_Y467], for which the enrichment score was inactive: 0.912.

As for DRTGHYLCNAC [GATA1_Y223], the enrichment score is inactive: 0.772.

In the case of NTYENYWPFYQ [GATM_Y103_K102N], the enrichment score is active: 4.27.

For the molecule RGRSTCFWPRP [GAGE12J_Y9_Y9C_YF], the enrichment score was inactive: 0.256.

Take LASSEYPVQRR [GALK1_Y236_R239Q]: the enrichment score was inactive: 0.641.

Consider LFSLGYHQSLW [GANAB_Y396_R400L], for which the enrichment score was inactive: 1.21.

Take RGRSTYFWPSP [GAGE12J_Y9_R13S_YF]: the enrichment score is inactive: 0.326.

Regarding SIIKDYFHRGA [GATM_Y203], the enrichment score was inactive: 1.29.

Turning to DVFRQYASLTG [GANAB_Y379], the enrichment score is inactive: 0.619.

MKKKIYAMGGG [GAN_Y424]: the enrichment score was inactive: 0.626.

For the molecule FIGCIYLYLTK [GARS1_Y414_R412C], the enrichment score was inactive: 2.88.

Another assay concerns the target SHP2 N-SH2 domain T42A. The description is as above. To be noted: peptide library: pTyr-Var.
In the case of TSSAVYMNLAS [GATAD2B_Y317_I316V], the enrichment score was inactive: 2.63.

Take VAMELYVFGGV [GAN_Y471]: the enrichment score was inactive: 0.814.

As to FEGAIYRKDVG [GART_Y417], the enrichment score was inactive: 0.78.

Regarding VKANTYENYWP [GATM_Y100_K102N], the enrichment score is active: 5.06.

For the molecule KPSLKYVTYGN [GALNTL5_Y404_G401S], the enrichment score is inactive: 1.49.

PTATSYTPNLA [GABRA1_Y375]: the enrichment score is inactive: 0.77.

Turning to ENPAKYDDIKK [GAPDH_Y255_K251N], the enrichment score is inactive: 0.515.

As for ADRSCYDLSCH [GARS1_Y467], the enrichment score is inactive: 0.769.

On to DRTGHYLCNAC [GATA1_Y223], for which the enrichment score is inactive: 0.826.

Consider NTYENYWPFYQ [GATM_Y103_K102N], for which the enrichment score is active: 4.5.

As for RGRSTCFWPRP [GAGE12J_Y9_Y9C_YF], the enrichment score was inactive: 0.171.

As for LASSEYPVQRR [GALK1_Y236_R239Q], the enrichment score is inactive: 0.617.

LFSLGYHQSLW [GANAB_Y396_R400L]: the enrichment score is inactive: 1.5.

Consider RGRSTYFWPSP [GAGE12J_Y9_R13S_YF], for which the enrichment score is inactive: 0.294.

For the molecule SIIKDYFHRGA [GATM_Y203], the enrichment score was inactive: 1.

For the molecule DVFRQYASLTG [GANAB_Y379], the enrichment score is inactive: 1.02.

On to MKKKIYAMGGG [GAN_Y424], for which the enrichment score was inactive: 0.514.

Regarding FIGCIYLYLTK [GARS1_Y414_R412C], the enrichment score is inactive: 2.34.

In a further assay the target is SHP2 N-SH2 domain T52S. Described as above. To be noted: peptide library: pTyr-Var.
Consider TSSAVYMNLAS [GATAD2B_Y317_I316V], for which the enrichment score is inactive: 2.36.

For VAMELYVFGGV [GAN_Y471], the enrichment score was inactive: 0.835.

For FEGAIYRKDVG [GART_Y417], the enrichment score is inactive: 0.723.

For the molecule VKANTYENYWP [GATM_Y100_K102N], the enrichment score is active: 3.99.

For KPSLKYVTYGN [GALNTL5_Y404_G401S], the enrichment score is inactive: 1.45.

As to PTATSYTPNLA [GABRA1_Y375], the enrichment score is inactive: 0.776.

As for ENPAKYDDIKK [GAPDH_Y255_K251N], the enrichment score is inactive: 0.582.

Take ADRSCYDLSCH [GARS1_Y467]: the enrichment score is inactive: 1.05.

Regarding DRTGHYLCNAC [GATA1_Y223], the enrichment score was inactive: 0.952.

As to NTYENYWPFYQ [GATM_Y103_K102N], the enrichment score was active: 4.99.

Regarding RGRSTCFWPRP [GAGE12J_Y9_Y9C_YF], the enrichment score is inactive: 0.295.

LASSEYPVQRR [GALK1_Y236_R239Q]: the enrichment score was inactive: 0.694.

As for LFSLGYHQSLW [GANAB_Y396_R400L], the enrichment score is inactive: 1.11.

RGRSTYFWPSP [GAGE12J_Y9_R13S_YF]: the enrichment score was inactive: 0.197.

Turning to SIIKDYFHRGA [GATM_Y203], the enrichment score was inactive: 1.11.

In the case of DVFRQYASLTG [GANAB_Y379], the enrichment score was inactive: 0.575.

As for MKKKIYAMGGG [GAN_Y424], the enrichment score was inactive: 1.07.

For the molecule FIGCIYLYLTK [GARS1_Y414_R412C], the enrichment score is inactive: 2.07.

For a further assay, the target named is SHP2 N-SH2 domain wild-type. The description is as above. The conditions noted are these: peptide library: pTyr-Var.
Regarding TSSAVYMNLAS [GATAD2B_Y317_I316V], the enrichment score was inactive: 2.24.

As for VAMELYVFGGV [GAN_Y471], the enrichment score is inactive: 1.29.

Turning to FEGAIYRKDVG [GART_Y417], the enrichment score is inactive: 0.986.

In the case of VKANTYENYWP [GATM_Y100_K102N], the enrichment score is active: 3.74.

Take KPSLKYVTYGN [GALNTL5_Y404_G401S]: the enrichment score was inactive: 1.11.

Turning to PTATSYTPNLA [GABRA1_Y375], the enrichment score is inactive: 0.766.

For ENPAKYDDIKK [GAPDH_Y255_K251N], the enrichment score was inactive: 0.57.

Regarding ADRSCYDLSCH [GARS1_Y467], the enrichment score was inactive: 0.924.

As to DRTGHYLCNAC [GATA1_Y223], the enrichment score was inactive: 1.32.

Turning to NTYENYWPFYQ [GATM_Y103_K102N], the enrichment score is active: 4.18.

As for RGRSTCFWPRP [GAGE12J_Y9_Y9C_YF], the enrichment score was inactive: 0.247.

Regarding LASSEYPVQRR [GALK1_Y236_R239Q], the enrichment score was inactive: 0.7.

As to LFSLGYHQSLW [GANAB_Y396_R400L], the enrichment score is inactive: 0.881.

Turning to RGRSTYFWPSP [GAGE12J_Y9_R13S_YF], the enrichment score is inactive: 0.38.

For SIIKDYFHRGA [GATM_Y203], the enrichment score is inactive: 1.05.

In the case of DVFRQYASLTG [GANAB_Y379], the enrichment score is inactive: 0.783.

Regarding MKKKIYAMGGG [GAN_Y424], the enrichment score was inactive: 0.822.

For the molecule FIGCIYLYLTK [GARS1_Y414_R412C], the enrichment score was inactive: 2.97.

The values are drawn from the supplement of paper PMC10369915.
